# The supplement of paper PMC7826260
# The list shows a part of the results. Viral Rep nickase domains cut single-stranded DNA in vitro at 3 µM enzyme and 37 °C for 1 h; the strands have 90 letters, of which the middle is given. The score is log2 (uncut reads / reads without enzyme); more negative means more cut, near 0 not cut, and no call is made. Shares of all reads are compared; where an enzyme cuts many sequences, the uncut ones exceed 0.
# System: T1, Rep nickase domain of tomato golden mosaic virus
# T1 sequence (residues 1-124, tag not shown): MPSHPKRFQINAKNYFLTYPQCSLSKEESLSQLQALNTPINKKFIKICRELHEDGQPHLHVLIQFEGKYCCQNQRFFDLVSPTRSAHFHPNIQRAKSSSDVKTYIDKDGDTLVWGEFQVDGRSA
# Assay: uncleaved DNA left, log2 of reads against the no-enzyme library (log2 ratio); higher = less cleavage (more negative = more Rep cleavage of the k-mer); sequences stand for … in CTCGTCCG…ACCGGAGA
# Description: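 A pool of 90-nt single-stranded DNAs with seven random bases just before the constant AC of the nick site (name = the seven bases) was cut by 3 µM recombinant His6-SUMO-tagged Rep nickase domain (300 nM DNA, 50 mM HEPES pH 8.0, 50 mM NaCl, 1 mM MnCl2, 1 h, 37 °C, three replicates). Uncut DNA was amplified and sequenced.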
row,Sequence,uncleaved DNA left (log2)
1,TCTGGTA,0.0513
2,CGTATCC,-0.131
3,TGATAAA,-0.0685
4,ACGTCCC,-0.143
5,GGGTACA,0.00668
6,GAGGAGT,-0.086
7,TCCAGCG,-0.00218
8,TATCTGT,-0.0918
9,GAACGGC,0.115
10,GCCGAGA,0.122
11,AGTTCAG,0.0512
12,AGGCTTA,0.145
13,ATTTGGA,-0.122
14,GTCCTAC,-0.136
15,TAGGTGT,0.0492
16,TCTACTA,-0.0134
17,GAGCTGC,-0.016
18,AGCATGT,0.0273
19,TGTTCAA,0.0132
20,ACTGCCG,-0.0677

row,Sequence,uncleaved DNA left (log2)
1,TAACGTT,-1.76
2,GTTTTAT,0.0506
3,ACCGGAG,0.0465
4,CGCACAA,0.0363
5,TACGGCG,-0.0142
6,ATCCCTC,-0.0633
7,TGCTATC,0.00258
8,GATGACT,0.0769
9,GGAAAGT,0.0708
10,GAATAAT,-2.81
11,ATCTTCG,-0.108
12,ATCCGAC,-0.204
13,TATGCGG,0.082
14,CGACTGT,0.0264
15,ATTCACA,0.0627
16,TTAGCTC,0.0129
17,GTGCAGT,-0.0635
18,CGTTGCT,-0.317
19,TGCATTG,0.0324
20,CGCTCAG,0.0324
